Experimental data: patent US20250213530A1 (GH RESEARCH IRELAND LIMITED, priority 2022, published 2025)

Tests used:
[1] = test system: patients with treatment-resistant major depressive disorder (TRD); assay: Phase 1/2 clinical trial of inhaled 5-MeO-DMT, BPRS; conditions: for BPRS Emotional Withdrawal, sum of patient scores: baseline 13; for BPRS Anxiety, sum of patient scores: baseline 25
[2] = test system: patients with treatment-resistant major depressive disorder (TRD); assay: Phase 1/2 clinical trial of inhaled 5-MeO-DMT, MADRS
[3] = 12 mg n = 4, 2 hours after dose, baseline 16
[4] = 12 mg n = 4, day 1, baseline 16
[5] = 12 mg n = 4, day 7, baseline 16

COc1ccc2[nH]cc(CCN(C)C)c2c1 [5-MeO-DMT]
BPRS Blunted Affect, sum of patient scores ([1]; 12 mg n = 4, 3 hours after dose, baseline 11): 8 | BPRS Tension, sum of patient scores ([1]; 12 mg n = 4, 3 hours after dose, baseline 14): 9 | BPRS Guilt Feelings, sum of patient scores ([1]; 12 mg n = 4, 3 hours after dose, baseline 18): 9 | BPRS Blunted Affect, sum of patient scores ([1]; 12 mg n = 4, day 1, baseline 11): 6 | BPRS Emotional Withdrawal, sum of patient scores ([1]; 12 mg n = 4, day 1): 8 | BPRS Tension, sum of patient scores ([1]; 12 mg n = 4, day 1, baseline 14): 6 | BPRS Guilt Feelings, sum of patient scores ([1]; 12 mg n = 4, day 1, baseline 18): 5 | BPRS Anxiety, sum of patient scores ([1]; 12 mg n = 4, day 1): 6 | BPRS Blunted Affect, sum of patient scores ([1]; 12 mg n = 4, day 7, baseline 11): 5 | BPRS Emotional Withdrawal, sum of patient scores ([1]; 12 mg n = 4, day 7): 6 | BPRS Tension, sum of patient scores ([1]; 12 mg n = 4, day 7, baseline 14): 6 | BPRS Guilt Feelings, sum of patient scores ([1]; 12 mg n = 4, day 7, baseline 18): 5 | BPRS Anxiety, sum of patient scores ([1]; 12 mg n = 4, day 7): 6 | BPRS Emotional Withdrawal, sum of patient scores ([1]; IDR n = 8, day 1): 8 | BPRS Blunted Affect, sum of patient scores ([1]; IDR n = 8, day 1, baseline 15): 8 | BPRS Emotional Withdrawal, sum of patient scores ([1]; IDR n = 8, day 7): 8 | BPRS Blunted Affect, sum of patient scores ([1]; IDR n = 8, day 7, baseline 15): 8 | BPRS Tension, sum of patient scores ([1]; IDR n = 8, day 7, baseline 16): 10 | BPRS Guilt Feelings, sum of patient scores ([1]; IDR n = 8, day 7, baseline 34): 10 | MADRS Suicidal Thoughts, sum of patient scores ([2]; 12 mg n = 4, 2 hours after dose, baseline 8): 3 | MADRS Inner Tension, sum of patient scores ([2]; 12 mg n = 4, 2 hours after dose, baseline 13): 2 | MADRS Concentration Difficulties, sum of patient scores [2, 3]: 7 | MADRS Inability to Feel, sum of patient scores [2, 3]: 9 | MADRS Lassitude, sum of patient scores [2, 3]: 10 | MADRS Pessimistic Thoughts, sum of patient scores [2, 3]: 8 | MADRS Suicidal Thoughts, sum of patient scores ([2]; 12 mg n = 4, day 1, baseline 8): 5 | MADRS Reduced Sleep, sum of patient scores ([2]; 12 mg n = 4, day 1, baseline 12): 10 | MADRS Inner Tension, sum of patient scores ([2]; 12 mg n = 4, day 1, baseline 13): 3 | MADRS Concentration Difficulties, sum of patient scores [2, 4]: 2 | MADRS Inability to Feel, sum of patient scores [2, 4]: 1 | MADRS Lassitude, sum of patient scores [2, 4]: 0 | MADRS Pessimistic Thoughts, sum of patient scores [2, 4]: 7 | MADRS Suicidal Thoughts, sum of patient scores ([2]; 12 mg n = 4, day 7, baseline 8): 7 | MADRS Reduced Sleep, sum of patient scores ([2]; 12 mg n = 4, day 7, baseline 12): 6 | MADRS Inner Tension, sum of patient scores ([2]; 12 mg n = 4, day 7, baseline 13): 5 | MADRS Concentration Difficulties, sum of patient scores [2, 5]: 3 | MADRS Inability to Feel, sum of patient scores [2, 5]: 1 | MADRS Lassitude, sum of patient scores [2, 5]: 3 | MADRS Pessimistic Thoughts, sum of patient scores [2, 5]: 8 | MADRS Suicidal Thoughts, sum of patient scores ([2]; IDR n = 8, 2 hours after last dose, baseline 11): 3 | MADRS Lassitude, sum of patient scores ([2]; IDR n = 8, 2 hours after last dose, baseline 27): 10 | MADRS Pessimistic Thoughts, sum of patient scores ([2]; IDR n = 8, 2 hours after last dose, baseline 28): 7 | MADRS Suicidal Thoughts, sum of patient scores ([2]; IDR n = 8, day 1, baseline 11): 1 | MADRS Inner Tension, sum of patient scores ([2]; IDR n = 8, day 1, baseline 26): 6 | MADRS Lassitude, sum of patient scores ([2]; IDR n = 8, day 1, baseline 27): 5 | MADRS Pessimistic Thoughts, sum of patient scores ([2]; IDR n = 8, day 1, baseline 28): 4 | MADRS Concentration Difficulties, sum of patient scores ([2]; IDR n = 8, day 1, baseline 30): 1 | MADRS Inability to Feel, sum of patient scores ([2]; IDR n = 8, day 1, baseline 36): 2 | MADRS Suicidal Thoughts, sum of patient scores ([2]; IDR n = 8, day 7, baseline 11): 3 | MADRS Reduced Sleep, sum of patient scores ([2]; IDR n = 8, day 7, baseline 25): 9 | MADRS Lassitude, sum of patient scores ([2]; IDR n = 8, day 7, baseline 27): 3 | MADRS Pessimistic Thoughts, sum of patient scores ([2]; IDR n = 8, day 7, baseline 28): 3 | MADRS Concentration Difficulties, sum of patient scores ([2]; IDR n = 8, day 7, baseline 30): 9 | MADRS Inability to Feel, sum of patient scores ([2]; IDR n = 8, day 7, baseline 36): 6 | patients with MADRS remission (total score less than or equal to 10) ([2]; Part A, 12 mg single dose, n=4, day seven): 50%
